Test results: the supplement of paper PMC8728848
The list shows a part of the results.

Tests used:
Experiment in all cases: glycan array binding signal (z-score within array); higher = stronger binding
Settings in all cases: glycan notation: IUPAC condensed, linker removed
[1] = molecular target: Neu5Ac(a2-3)Gal6S(b1-4)[Fuc(a1-3)]GlcNAc
Outline: (§1)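 The Consortium for Functional Glycomics database supplied 3228 glycan arrays, of which those lacking an available protein sequence were dropped. The binding signal, a within-array Z-score, was averaged across arrays of the same protein sequence and across linkers. Negative scores can be read as non-binding.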

Neu5Ac(a2-3)GalNAc = molecular target: Neu5Ac(a2-3)GalNAc
Outline: as §1

[2] = molecular target: Neu5Ac(a2-3)GalNAc(b1-4)GlcNAc
Outline: as §1

[3] = molecular target: Neu5Ac(a2-3)[GalNAc(b1-4)]Gal(b1-4)Glc
Outline: as §1

[4] = molecular target: Neu5Ac(a2-3)[GalNAc(b1-4)]Gal(b1-4)GlcNAc
Outline: as §1

[5] = molecular target: Neu5Ac(a2-3)[Neu5Ac(a2-6)]GalNAc
Outline: as §1

Neu5Ac(a2-6)Gal = molecular target: Neu5Ac(a2-6)Gal
Outline: as §1

Neu5Ac(a2-6)Gal(b1-4)Glc = molecular target: Neu5Ac(a2-6)Gal(b1-4)Glc
Outline: as §1

[6] = molecular target: Neu5Ac(a2-6)Gal(b1-4)GlcNAc
Outline: as §1

[7] = molecular target: Neu5Ac(a2-6)Gal(b1-4)GlcNAc(b1-2)Man(a1-3)[Gal(b1-4)GlcNAc(b1-2)Man(a1-6)]Man(b1-4)GlcNAc(b1-4)GlcNAc
Outline: as §1

[8] = molecular target: Neu5Ac(a2-6)Gal(b1-4)GlcNAc(b1-2)Man(a1-3)[GlcNAc(b1-2)Man(a1-6)]Man(b1-4)GlcNAc(b1-4)GlcNAc
Outline: as §1

[9] = molecular target: Neu5Ac(a2-6)Gal(b1-4)GlcNAc(b1-2)Man(a1-3)[GlcNAc(b1-2)Man(b1-4)GlcNAc(b1-2)Man(a1-6)]Man(b1-4)GlcNAc(b1-4)GlcNAc
Outline: as §1

[10] = molecular target: Neu5Ac(a2-6)Gal(b1-4)GlcNAc(b1-2)Man(a1-3)[Neu5Ac(a2-6)Gal(b1-4)GlcNAc(b1-2)Man(a1-6)]Man(b1-4)GlcNAc(b1-4)GlcNAc
Outline: as §1

[11] = molecular target: Neu5Ac(a2-6)Gal(b1-4)GlcNAc(b1-2)Man(a1-6)[Gal(b1-4)GlcNAc(b1-2)Man(a1-3)]Man(b1-4)GlcNAc(b1-4)GlcNAc
Outline: as §1

[12] = molecular target: Neu5Ac(a2-6)Gal(b1-4)GlcNAc(b1-2)Man(a1-6)[GlcNAc(b1-2)Man(a1-3)]Man(b1-4)GlcNAc(b1-4)GlcNAc
Outline: as §1

[13] = molecular target: Neu5Ac(a2-6)Gal(b1-4)GlcNAc(b1-3)Gal(b1-4)GlcNAc
Outline: as §1

[14] = molecular target: Neu5Ac(a2-6)Gal(b1-4)GlcNAc(b1-3)Gal(b1-4)[Fuc(a1-3)]GlcNAc(b1-3)Gal(b1-4)[Fuc(a1-3)]GlcNAc
Outline: as §1

[15] = molecular target: Neu5Ac(a2-6)Gal(b1-4)GlcNAc6S
Outline: as §1

Neu5Ac(a2-6)GalNAc = molecular target: Neu5Ac(a2-6)GalNAc
Outline: as §1

[16] = molecular target: Neu5Ac(a2-6)GalNAc(b1-4)GlcNAc
Outline: as §1

Neu5Ac(a2-8)Neu5Ac = molecular target: Neu5Ac(a2-8)Neu5Ac
Outline: as §1

[17] = molecular target: Neu5Ac(a2-8)Neu5Ac(a2-3)Gal(b1-4)Glc
Outline: as §1

[18] = molecular target: Neu5Ac(a2-8)Neu5Ac(a2-3)[GalNAc(b1-4)]Gal(b1-4)Glc
Outline: as §1

[19] = molecular target: Neu5Ac(a2-8)Neu5Ac(a2-8)Neu5Ac
Outline: as §1

[20] = molecular target: Neu5Ac(a2-8)Neu5Ac(a2-8)Neu5Ac(a2-3)Gal(b1-4)Glc
Outline: as §1

[21] = molecular target: Neu5Ac(a2-8)Neu5Ac(a2-8)Neu5Ac(a2-3)[GalNAc(b1-4)]Gal(b1-4)Glc
Outline: as §1

[22] = molecular target: Neu5Ac(a2-8)Neu5Ac(a2-8)Neu5Ac(a2-8)Neu5Ac(a2-3)[GalNAc(b1-4)]Gal(b1-4)Glc
Outline: as §1

[23] = molecular target: Neu5Ac(b2-6)Gal(b1-4)GlcNAc
Outline: as §1

Neu5Ac(b2-6)GalNAc = molecular target: Neu5Ac(b2-6)GalNAc
Outline: as §1

[24] = molecular target: Neu5Ac9Ac(a2-6)Gal(b1-4)GlcNAc
Outline: as §1

[25] = molecular target: Neu5Gc(a2-3)Gal(b1-3)GlcNAc
Outline: as §1

[26] = molecular target: Neu5Gc(a2-3)Gal(b1-3)[Fuc(a1-4)]GlcNAc
Outline: as §1

Neu5Gc(a2-3)Gal(b1-4)Glc = molecular target: Neu5Gc(a2-3)Gal(b1-4)Glc
Outline: as §1

[27] = molecular target: Neu5Gc(a2-3)Gal(b1-4)GlcNAc
Outline: as §1

[28] = molecular target: Neu5Gc(a2-3)Gal(b1-4)[Fuc(a1-3)]GlcNAc
Outline: as §1

[29] = molecular target: Neu5Gc(a2-6)Gal(b1-4)GlcNAc
Outline: as §1

Neu5Gc(a2-6)GalNAc = molecular target: Neu5Gc(a2-6)GalNAc
Outline: as §1

[30] = molecular target: Neu5Gc(b2-6)Gal(b1-4)GlcNAc
Outline: as §1

B1: Surfactant Protein D (Human); Neck + Carbohydrate Recognition Domain (NCRD) (Homo sapiens) (protein)
chain: MLLFLLSALVLLTQPLGYLEAEMKTYSHRTMPSACTLVMCSSVESGLPGRDRDGREGPRGEKGDPGLPGAAGQAGMPGQAGPVGPKGDNGSVGEPGPKGDTGPSGPPGPPGVPGPAGREGALGKQGNIGPQGKPGPKGEAGPKGEVGAPGMQGSAGARGLAGPKGERGVPGERGVPGNTGAAGSAGAMGPQGSPGARGPPGLKGDKGIPGDKGAKGESGLPDVASLRQQVEALQGQVQHLQAAFSQYKKVELFPNGQSVGEKIFKTAQFVKPFTEAQLLCTQAGGQLASPRSAAENAALQQLVVAKNEAAFLSMTDSKTEGKFTYPTGESLVYSNWAPGEPNDDGGSEDCVEIFTNGKWNDRACGEKRLVVCEF
- glycan array binding signal (z-score) [1]: -0.254
- glycan array binding signal (z-score) (Neu5Ac(a2-3)GalNAc): -0.241
- glycan array binding signal (z-score) [2]: -0.281
- glycan array binding signal (z-score) [3]: -0.277
- glycan array binding signal (z-score) [4]: -0.237
- glycan array binding signal (z-score) [5]: -0.296
- glycan array binding signal (z-score) (Neu5Ac(a2-6)Gal): -0.239
- glycan array binding signal (z-score) (Neu5Ac(a2-6)Gal(b1-4)Glc): -0.244
- glycan array binding signal (z-score) [6]: -0.27
- glycan array binding signal (z-score) [7]: -0.248
- glycan array binding signal (z-score) [8]: -0.267
- glycan array binding signal (z-score) [9]: -0.171
- glycan array binding signal (z-score) [10]: -0.262
- glycan array binding signal (z-score) [11]: -0.271
- glycan array binding signal (z-score) [12]: -0.273
- glycan array binding signal (z-score) [13]: -0.277
- glycan array binding signal (z-score) [14]: 0.12
- glycan array binding signal (z-score) [15]: -0.259
- glycan array binding signal (z-score) (Neu5Ac(a2-6)GalNAc): -0.269
- glycan array binding signal (z-score) [16]: -0.254
- glycan array binding signal (z-score) (Neu5Ac(a2-8)Neu5Ac): -0.171
- glycan array binding signal (z-score) [17]: -0.177
- glycan array binding signal (z-score) [18]: -0.238
- glycan array binding signal (z-score) [19]: -0.221
- glycan array binding signal (z-score) [20]: -0.29
- glycan array binding signal (z-score) [21]: -0.258
- glycan array binding signal (z-score) [22]: -0.234
- glycan array binding signal (z-score) [23]: -0.288
- glycan array binding signal (z-score) (Neu5Ac(b2-6)GalNAc): -0.258
- glycan array binding signal (z-score) [24]: -0.282
- glycan array binding signal (z-score) [25]: -0.278
- glycan array binding signal (z-score) [26]: -0.276
- glycan array binding signal (z-score) (Neu5Gc(a2-3)Gal(b1-4)Glc): -0.202
- glycan array binding signal (z-score) [27]: -0.27
- glycan array binding signal (z-score) [28]: -0.261
- glycan array binding signal (z-score) [29]: -0.263
- glycan array binding signal (z-score) (Neu5Gc(a2-6)GalNAc): -0.247
- glycan array binding signal (z-score) [30]: -0.243
